This note sets out measurements from a collection of fitness landscapes (doi:10.1126/science.1257360).

The chains are these.
B1: PhoQ; a variant is named by its letters at X, in order, P23837 (parent)
chain: MKKLLRLFFPLSLRVRFLLATAAVVLVLSLAYGMVALIGYSVSFDKTTFRLLRGESNLFYTLAKWENNKLHVELPENIDKQSPTMTLIYDENGQLLWAQRDVPWLMKMIQPDWLKSNGFHEIEADVNDTSLLLSGDHSIQQQLQEVREDDDDAEMTHSVAVNVYPATSRMPKLTIVVVDTIPVELKSSYMVWSWFIYVLSANLLLVIPLLWVAAWWSLRPIEALAKEVRELEEHNRELLNPATTRELTSLVRNLNRLLKSERERYDKYRTTLTDLTHSLKTPLXXLQXXLRSLRSEKMSVSDAEPVMLEQISRISQQIGYYLHRASMRGGTLLSRELHPVAPLLDNLTSALNKVYQRKGVNISLDISPEISFVGEQNDFVEVMGNVLDNACKYCLEFVEISARQTDEHLYIVVEDDGPGIPLSKREVIFDRGQRVDTLRPGQGVGLAVAREITEQYEGKIVAGESMLGGARMEVIFGRQHSAPKDE

The other results are listed elsewhere or left out. Bounds are passed on as bounds.

Variants of B1 are the subject of the test. Kind of test: enrichment ratio after two sorts for PhoP signalling (ratio (wild type AVST 3.29)); higher = more functional. The note with it: with PhoP (E. coli).
As to DWPT, the enrichment ratio was at most 0.25.

For the variant TMET, the enrichment ratio was at most 0.25.

Take NSDE: the enrichment ratio was at most 0.25.

For GIKK, the enrichment ratio was at most 0.25.

Turning to GVRN, the enrichment ratio was at most 0.25.

As for MKEV, the enrichment ratio is at most 0.25.

Regarding PSWE, the enrichment ratio was at most 0.25.

On to GYLM, for which the enrichment ratio was at most 0.25.

Turning to QCYW, the enrichment ratio is at most 0.25.

Take NYGC: the enrichment ratio is at most 0.25.

As for WGPR, the enrichment ratio was at most 0.25.

On to QACC, for which the enrichment ratio is at most 0.25.

As to TEDA, the enrichment ratio is at most 0.25.

On to VTPK, for which the enrichment ratio is at most 0.25.

SNAL: the enrichment ratio was 12.1.

Regarding HWLP, the enrichment ratio is at most 0.25.

As to TWHV, the enrichment ratio is at most 0.25.

Turning to GPTC, the enrichment ratio was at most 0.25.

For the variant GNEM, the enrichment ratio is at most 0.25.

Regarding SQTT, the enrichment ratio turned out to be 11.4.

Take YDEP: the enrichment ratio is at most 0.25.

As to LEET, the enrichment ratio is at most 0.25.

With ALYN, the enrichment ratio is at most 0.25.

For the variant IGCT, the enrichment ratio was at most 0.25.

Consider QSIT, for which the enrichment ratio was at most 0.25.

Turning to HALL, the enrichment ratio was 12.4.

In the case of LITN, the enrichment ratio is at most 0.25.

With QAFH, the enrichment ratio was determined as 9.93.

On to KRKF, for which the enrichment ratio was at most 0.25.

For the variant KERF, the enrichment ratio was at most 0.25.

On to GPKD, for which the enrichment ratio was at most 0.25.

As to SERS, the enrichment ratio was at most 0.25.

Turning to LEMV, the enrichment ratio turned out to be 12.9.

For the variant LDVK, the enrichment ratio is at most 0.25.

In the case of IIPR, the enrichment ratio was at most 0.25.

Take YTFV: the enrichment ratio is at most 0.25.

Regarding THKF, the enrichment ratio is at most 0.25.

For FYPN, the enrichment ratio is at most 0.25.

Take DSKM: the enrichment ratio is at most 0.25.

For the variant NHRH, the enrichment ratio is at most 0.25.

Turning to WDWV, the enrichment ratio is at most 0.25.

Consider TGMG, for which the enrichment ratio stood at 17.2.

IPIH: the enrichment ratio was at most 0.25.

For PKQI, the enrichment ratio was at most 0.25.

Turning to QLMA, the enrichment ratio is at most 0.25.

GTCS: the enrichment ratio turned out to be 3.97.

With VDSP, the enrichment ratio was at most 0.25.

With QLHV, the enrichment ratio is at most 0.25.

For the variant EGEW, the enrichment ratio is at most 0.25.

As for GGPS, the enrichment ratio is at most 0.25.

IANI: the enrichment ratio is at most 0.25.

As for MHGR, the enrichment ratio was at most 0.25.

As to TGCM, the enrichment ratio was determined as 16.3.

As to WRGQ, the enrichment ratio is at most 0.25.

Take KEVY: the enrichment ratio is at most 0.25.

Consider MQKL, for which the enrichment ratio was at most 0.25.

ALAT: the enrichment ratio worked out at 1.17.

Turning to IYHN, the enrichment ratio was at most 0.25.

For the variant HSTY, the enrichment ratio is at most 0.25.

Regarding HLDG, the enrichment ratio was at most 0.25.

Consider RTEF, for which the enrichment ratio is at most 0.25.

On to KAYH, for which the enrichment ratio was at most 0.25.

Consider KMYM, for which the enrichment ratio was at most 0.25.

With ALAV, the enrichment ratio was found to be 8.34.

Consider KRYE, for which the enrichment ratio is at most 0.25.

For PIPG, the enrichment ratio is at most 0.25.

Regarding IWAQ, the enrichment ratio was at most 0.25.

Regarding TLFA, the enrichment ratio is at most 0.25.

Regarding TWLG, the enrichment ratio was at most 0.25.

Turning to ETTF, the enrichment ratio is at most 0.25.

With FYPI, the enrichment ratio is at most 0.25.

HRWG: the enrichment ratio was at most 0.25.

On to QFRI, for which the enrichment ratio was at most 0.25.

Regarding RWLQ, the enrichment ratio was at most 0.25.

Consider FQVV, for which the enrichment ratio was at most 0.25.

Consider IWAE, for which the enrichment ratio is at most 0.25.

In the case of MEFK, the enrichment ratio is 1.13.

As to HNNT, the enrichment ratio is at most 0.25.

Turning to IREM, the enrichment ratio is at most 0.25.

With VVCL, the enrichment ratio is at most 0.25.

For the variant QHRS, the enrichment ratio was at most 0.25.

Take FYEP: the enrichment ratio was at most 0.25.

Consider EKFL, for which the enrichment ratio is at most 0.25.

Take QVQS: the enrichment ratio is at most 0.25.

As to FGQG, the enrichment ratio is at most 0.25.

For SCQR, the enrichment ratio was at most 0.25.

For the variant FTIW, the enrichment ratio is at most 0.25.

Turning to RWET, the enrichment ratio was at most 0.25.

Regarding HVMP, the enrichment ratio was at most 0.25.

On to HYEF, for which the enrichment ratio is at most 0.25.

For the variant AWFF, the enrichment ratio is at most 0.25.

Regarding QSAR, the enrichment ratio was at most 0.25.

For YMAI, the enrichment ratio stood at 0.259.

CKSC: the enrichment ratio was at most 0.25.

For CICL, the enrichment ratio is at most 0.25.

Consider LDMD, for which the enrichment ratio is at most 0.25.

Turning to WQMY, the enrichment ratio is at most 0.25.

RESE: the enrichment ratio was at most 0.25.

On to PIEA, for which the enrichment ratio was at most 0.25.

With SDWI, the enrichment ratio was at most 0.25.

As for PLAC, the enrichment ratio was at most 0.25.

On to MSFD, for which the enrichment ratio is at most 0.25.

In the case of VAIR, the enrichment ratio was at most 0.25.

WNRY: the enrichment ratio was at most 0.25.

Turning to TSKK, the enrichment ratio is at most 0.25.

Take QRNV: the enrichment ratio is at most 0.25.

Consider LLNA, for which the enrichment ratio was at most 0.25.

PYHQ: the enrichment ratio is at most 0.25.

As for WQYF, the enrichment ratio is at most 0.25.

In the case of VYIA, the enrichment ratio is at most 0.25.

EMLD: the enrichment ratio was at most 0.25.

Turning to MFQD, the enrichment ratio is at most 0.25.

Turning to MRWF, the enrichment ratio is at most 0.25.

In the case of QQDA, the enrichment ratio was found to be 4.59.

In the case of IMTI, the enrichment ratio is at most 0.25.

LMEM: the enrichment ratio is at most 0.25.

As to KVYG, the enrichment ratio is at most 0.25.

With HKHH, the enrichment ratio was at most 0.25.

For the variant ICVT, the enrichment ratio was at most 0.25.

Take RHKP: the enrichment ratio is at most 0.25.

AMSY: the enrichment ratio came to 6.47.

For the variant YDCD, the enrichment ratio is at most 0.25.

In the case of TMAG, the enrichment ratio worked out at 7.16.

Take HSLH: the enrichment ratio was at most 0.25.

Turning to HQDW, the enrichment ratio is at most 0.25.

On to EASP, for which the enrichment ratio is at most 0.25.

Consider MFVR, for which the enrichment ratio was at most 0.25.

Turning to LEPY, the enrichment ratio was at most 0.25.

In the case of NKGC, the enrichment ratio is at most 0.25.

In the case of NIMR, the enrichment ratio was at most 0.25.

With AGHR, the enrichment ratio is at most 0.25.

Take VCAI: the enrichment ratio is 5.25.

Take KEQY: the enrichment ratio is at most 0.25.

Take IWRK: the enrichment ratio is at most 0.25.

As to TSRV, the enrichment ratio is at most 0.25.

Turning to HKRV, the enrichment ratio was at most 0.25.

For the variant WYIE, the enrichment ratio is at most 0.25.

With HNWP, the enrichment ratio was at most 0.25.

With PWRW, the enrichment ratio was at most 0.25.

As for PQDS, the enrichment ratio was at most 0.25.

As for QMFI, the enrichment ratio is at most 0.25.

Take VTKG: the enrichment ratio is at most 0.25.

Consider ESLE, for which the enrichment ratio is at most 0.25.

As for RYWK, the enrichment ratio was at most 0.25.

Turning to TCKS, the enrichment ratio was at most 0.25.

Turning to TTMK, the enrichment ratio is at most 0.25.

DPEP: the enrichment ratio is at most 0.25.

Turning to TDYM, the enrichment ratio is at most 0.25.

Regarding HNKA, the enrichment ratio was at most 0.25.

Turning to QNAC, the enrichment ratio is at most 0.25.

For the variant QQPV, the enrichment ratio was at most 0.25.

As for DFKE, the enrichment ratio is at most 0.25.

Consider THWS, for which the enrichment ratio was 1.22.
